The list shows a part of the results. Antibody binding of pooled human sera (four to six donors per pool; dilution not stated) to peptides of the Trypanosoma cruzi antigen TSSA on microarrays. Quantile-normalised fluorescence in arbitrary units, mean of duplicate arrays; higher = more binding. No active / inactive call. The uninfected pools are read here as the healthy donors of the same country. The strongest signals lie near the top of the scale (about 60,000).

This assay has as its system pooled sera of chronic Chagas disease patients, Argentina. In words: antibody binding signal (normalised fluorescence) (arbitrary fluorescence units); higher = stronger serum antibody binding to peptide. The procedure:
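Microarray of 15-residue peptides over residues 30-55 of Trypanosoma cruzi TSSAII, each with 1 to 10 substitutions at naturally variable positions, probed with one serum pool per country.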
On to KKPATGETPSQPGAS, for which the antibody binding signal stood at 9080.
Regarding TEKKPAAGGAPSQPG, the antibody binding signal stood at 1190.
Sequence ENKPAAGGAPSPPGA came in with an antibody binding signal of 418.
PPSGKDKKTATGETP displayed an antibody binding signal of 782.
For the sequence KKPAAGGAPSQSGAS, the antibody binding signal was 182.
Take GKENKAATGGAPSPS: the antibody binding signal is 2100.
Sequence KENKPATGGTPSQSG returned an antibody binding signal of 397.
For KTAAGGAPSQSGASS the value was 199; for TDNKAATGGAPSQPG, 520; for NKPATGGTPSPSGAS, 617.
For DNKTATGETPSQSGA the value was 893; for SGKDNKPATGGTPSQ, 1080; for TENKPATGETPSPPG, 42200.
Take KENKTATGGTPSQPG: the antibody binding signal worked out at 324.
Take PPSGKENKAAAGETP: the antibody binding signal amounted to 6000.
Sequence GTDKKPAAGETPSQS yielded an antibody binding signal of 419.
Turning to TEKKPAAGETPSQSG, the antibody binding signal was 1710.
Take ENKAATGEAPSQPGA: the antibody binding signal stood at 29900.
KENKAAAGGTPSQSG registered an antibody binding signal of 172.
ENKAAAGGAPSPPGA showed an antibody binding signal of 268.
In the case of ISTPPSGKDKKTATG it was 18800; in that of DNKTAAGGAPSQPGA, 312; in that of TISTPPSGKDNKPAA, 18300.
For SGKDKKTATGGTPSP the value was 688; for SGTDKKAATGGAPSQ, 1850; for TSSTPPSGTENKTAA, 52400.
In the case of ENKPAAGGTPSPSGA it was 462; in that of GTENKAAAGEAPSQS, 35700; in that of SGKEKKPAAGGAPSP, 7730.
For the sequence GKDNKAATGEAPSQS, the antibody binding signal came out at 31900.
For the sequence SGTDKKTATGETPSQ, the antibody binding signal stood at 582.
Sequence PSGKEKKTATGETPS gave an antibody binding signal of 4160.
For TDNKPAAGGTPSPSG the value was 1420; for SGTENKAAAGEAPSP, 40000; for KEKKPATGETPSPSG, 21700.
PPSGTDKKTATGEAP had an antibody binding signal of 13000.
Turning to PPSGTENKAAAGEAP, the antibody binding signal stood at 47500.
As to ENKPATGGTPSQSGA, the antibody binding signal was 893.
GKEKKTAAGETPSPS showed an antibody binding signal of 2570.
For KDNKAAAGEAPSQPG, the antibody binding signal is 4800.

For the origin of these results see the supplement of paper PMC10441789.
